# Source: publication PMC4336329 (PLoS ONE, 2015)
# The whole screen tested about 310,000 compounds, of which about 14,000 (4.5%) showed an effect of 50% or more. The effect is printed as a negative number. This is one part of the list.
# Target: human ether-à-go-go-related gene (hERG) potassium channel (human, UniProt Q12809)
# Assay: primary screen, population patch clamp on CHO cells stably expressing hERG
# 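Further: peak tail current of the secondary pulse compared with the same well before compound.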
# Sequence of human ether-à-go-go-related gene (hERG) potassium channel (Q12809 whole entry, looked up): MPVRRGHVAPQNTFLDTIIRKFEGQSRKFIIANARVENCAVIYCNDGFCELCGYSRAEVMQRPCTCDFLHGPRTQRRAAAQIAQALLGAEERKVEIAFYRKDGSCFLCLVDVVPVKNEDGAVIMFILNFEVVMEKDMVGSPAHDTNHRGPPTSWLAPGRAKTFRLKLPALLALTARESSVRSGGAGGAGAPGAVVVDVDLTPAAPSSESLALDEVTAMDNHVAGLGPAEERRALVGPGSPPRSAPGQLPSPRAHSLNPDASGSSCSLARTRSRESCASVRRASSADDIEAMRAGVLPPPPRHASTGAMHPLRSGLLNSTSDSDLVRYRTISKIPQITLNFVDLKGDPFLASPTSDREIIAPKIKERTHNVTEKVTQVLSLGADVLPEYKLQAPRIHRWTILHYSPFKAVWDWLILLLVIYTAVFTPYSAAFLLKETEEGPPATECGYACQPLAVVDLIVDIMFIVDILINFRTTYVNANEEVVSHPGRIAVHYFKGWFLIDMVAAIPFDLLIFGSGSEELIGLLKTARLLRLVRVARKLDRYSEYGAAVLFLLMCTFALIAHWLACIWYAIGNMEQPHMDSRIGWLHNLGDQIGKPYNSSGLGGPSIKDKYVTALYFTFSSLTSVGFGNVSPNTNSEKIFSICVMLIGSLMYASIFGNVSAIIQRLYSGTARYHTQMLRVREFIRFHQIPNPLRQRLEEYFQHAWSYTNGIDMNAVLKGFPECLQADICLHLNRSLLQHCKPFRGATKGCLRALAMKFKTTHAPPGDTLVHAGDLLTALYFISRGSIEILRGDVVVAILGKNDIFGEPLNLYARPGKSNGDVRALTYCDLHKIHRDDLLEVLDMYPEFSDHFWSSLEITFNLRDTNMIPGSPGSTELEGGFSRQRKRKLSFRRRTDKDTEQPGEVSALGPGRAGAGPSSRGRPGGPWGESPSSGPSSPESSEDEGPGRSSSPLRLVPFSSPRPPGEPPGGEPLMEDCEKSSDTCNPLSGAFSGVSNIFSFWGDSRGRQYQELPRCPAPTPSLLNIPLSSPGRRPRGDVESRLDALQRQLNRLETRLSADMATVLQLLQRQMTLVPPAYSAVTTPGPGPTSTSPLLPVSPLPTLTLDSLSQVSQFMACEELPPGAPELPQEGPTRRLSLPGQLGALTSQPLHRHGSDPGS
row,Structure (SMILES),"hERG current change (%, negative = inhibition) at 10uM [%]"
1,COC(=O)c1ccc(Oc2nc(NC(C)C)nc(N(C)C)n2)cc1,12.5
2,C/C(=N\NC(=O)c1cc(C)[nH]n1)C(C)(C)C,18.2
3,Cc1ccc(NC(=O)CCN2C(=O)c3cccc([N+](=O)[O-])c3C2=O)c(Br)c1,2.1
4,CC(C)Sc1ncc(S(=O)(=O)c2ccccc2)c(=O)[nH]1,32.2
5,COc1ccccc1C(=O)Nc1ccnn1C1CCN(Cc2cnc(N(C)C)s2)CC1,-65
6,N/C(=N\OC(=O)COc1ccc(Br)cc1Cl)c1cccnc1,12.4
7,CC1=C2C3OC(=O)C(C)[C@@H]3CC[C@](C)(O)C2C2C3C4C5(C12)[C@H]1OC(=O)[C@@H](C)C1CC[C@]4(C)O[C@]5(C)[C@@H]3O (stereo partly shown),16.2
8,O=S(=O)(c1cc(Cl)ccc1Cl)N1CCCCC1,-7.55
9,CCCCN(C)CCCNC(=O)/C=C1\Sc2ccccc2NC1=O,-28.6
10,COC(=O)CSc1cnc2ccccc2n1,10.3
11,CCCCCC(=O)Nc1ccc(-c2nnc3n2CCCCC3)cc1,-5.53
12,S=c1[nH]nc(CNc2ccc(Cl)cc2)n1Cc1ccccc1,10.6
13,CC(OC(=O)c1ccc(S(=O)(=O)NCc2ccco2)cc1)C(=O)Nc1ncc(Cl)cc1Cl (stereo not shown),-1.25
14,CCC(C)(C)NC(=O)/C=C/c1ccccc1[N+](=O)[O-],-9.32
15,Cc1nn2c(-c3cccnc3)ccnc2c1-c1ccccc1,-5.4
16,CSc1nc2sc3c(c2c(=S)[nH]1)CC(C)(C)OC3,20
17,Cc1nnc(N/N=C/c2cccs2)[nH]c1=O,-6.59
18,O=C(CN1CCCc2ccccc21)N/N=C/c1ccc(F)cc1F,-2.52
19,CC1Sc2ccc(S(=O)(=O)NCCc3ccccc3)cc2NC1=O (stereo not shown),12.5
20,Cc1ccc(OCCOCCOc2cccc3cccnc23)c(Br)c1,2.64
21,Cc1cc2c(s1)NC(=O)CN=C2c1cccs1,9.61
22,CCCCc1ccc(NC(=S)NCCc2ccc(S(N)(=O)=O)cc2)cc1,9.1

row,Structure (SMILES),"hERG current change (%, negative = inhibition) at 10uM [%]"
1,CCCNC(=O)OC[C@H]1O[C@H](CCO/N=C/C[C@@H]2C=C[C@H](OC(C)=O)[C@@H](COC(C)=O)O2)C=C[C@@H]1Oc1ccc(OC)cc1,-59.7
2,O=C(CSCc1ccc([N+](=O)[O-])cc1)NC1CC1,-29.7
3,CCOC(=O)C(=CNc1cccc(C)c1C)C(=O)OCC,16
4,NC(=O)C1CCN(S(=O)(=O)c2cccc(C(=O)O)c2)CC1,4.59
5,O=[N+]([O-])c1ccc(Sc2ccc(Cl)c(Cl)c2)nc1,-11.1
6,O=C1NC(c2ccc(Br)cc2)Nc2sc3c(c21)CCC3 (stereo not shown),-45.7
7,O=C(O)c1ccc(NS(=O)(=O)c2cccc(S(=O)(=O)c3ccc(Cl)c(Cl)c3)c2)cc1,-2.9
8,COC(=O)c1cccc(Cn2cc([N+](=O)[O-])cn2)c1,8.41
9,COc1cc2cc(CN(CCN3CCOCC3)C(=O)Nc3ccc(F)cc3)c(=O)[nH]c2cc1OC,-28.6
10,COc1ccc(CNC(=O)c2cccc3c2C(=O)N(CC2CCCO2)C3)cc1 (stereo not shown),-34.5
11,COc1ccc(C2CC(c3ccccc3)=NN2C(=O)COC(=O)/C=C/c2ccc(O)c(OC)c2)cc1 (stereo not shown),-0.0375
12,O=C(NNC(=O)c1ccc(Cl)c([N+](=O)[O-])c1)c1ccncc1,13.2
13,Cc1cc(C)cc(C(=O)NCC(=O)OCc2c(C)noc2C)c1,-9.66
14,Cc1cccn2c(=O)c3cc(C(=O)NC4CCCC4)n(C)c3nc12,1.13
15,Cc1onc(-c2ccccc2)c1C(=O)N1CCN(C(=O)c2ccco2)CC1,-0.342
16,COC(=O)c1ccc(N/C=C/C(=O)c2ccc(OC)c(OC)c2)cc1,-19.7
17,Cc1nonc1CC(=O)NC1CCCc2c1cnn2-c1ccc(F)cc1F (stereo not shown),11.2
18,CCCCNC(=O)CCC(=O)Nc1ccc2nc(N3CCCCC3)cc(C)c2c1,-18.5
19,C(=N\Nc1nc2ccccc2[nH]1)/c1ccccc1,17.5
20,O=C(NCc1ccccc1)C1CCCN1S(=O)(=O)c1ccc(Cl)cc1 (stereo not shown),-7.85
21,CCn1c(=O)c2c(nc(SCC(=O)NCC3CCCO3)n2C)n(C)c1=O (stereo not shown),-0.794
